# Results: the supplement of paper PMC8728848
# Some of the results follow.
# What was measured:
# Test in all cases: glycan array binding signal (z-score within array); higher = stronger binding
# Conditions in all cases: glycan notation: IUPAC condensed, linker removed
# [1] = target: GlcNAc(b1-3)Gal(b1-3)GalNAc
# Outline: (§1)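 Columns mapping to the same glycan were averaged after glycan names were converted to IUPAC-condensed notation. The data come from 3228 arrays in the Consortium for Functional Glycomics database, limited to those with an available protein sequence. Binding is reported as a within-array Z-score averaged across arrays of one protein sequence and across linkers.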
# GlcNAc(b1-3)Gal(b1-4)Glc = target: GlcNAc(b1-3)Gal(b1-4)Glc
# Outline: as §1
# [2] = target: GlcNAc(b1-3)Gal(b1-4)GlcNAc
# Outline: as §1
# [3] = target: GlcNAc(b1-3)Gal(b1-4)GlcNAc(b1-3)Gal(b1-4)GlcNAc
# Outline: as §1
# GlcNAc(b1-3)GalNAc = target: GlcNAc(b1-3)GalNAc
# Outline: as §1
# GlcNAc(b1-3)Man = target: GlcNAc(b1-3)Man
# Outline: as §1
# [4] = target: GlcNAc(b1-3)[GlcNAc(b1-4)][GlcNAc(b1-6)]GlcNAc
# Outline: as §1
# [5] = target: GlcNAc(b1-3)[GlcNAc(b1-6)]Gal(b1-4)GlcNAc
# Outline: as §1
# [6] = target: GlcNAc(b1-3)[GlcNAc(b1-6)]GalNAc
# Outline: as §1
# [7] = target: GlcNAc(b1-4)Gal(b1-4)GlcNAc
# Outline: as §1
# GlcNAc(b1-4)GlcNAc = target: GlcNAc(b1-4)GlcNAc
# Outline: as §1
# [8] = target: GlcNAc(b1-4)GlcNAc(b1-4)GlcNAc
# Outline: as §1
# [9] = target: GlcNAc(b1-4)GlcNAc(b1-4)GlcNAc(b1-4)GlcNAc(b1-4)GlcNAc
# Outline: as §1
# [10] = target: GlcNAc(b1-4)GlcNAc(b1-4)GlcNAc(b1-4)GlcNAc(b1-4)GlcNAc(b1-4)GlcNAc
# Outline: as §1
# [11] = target: GlcNAc(b1-4)[GlcNAc(b1-6)]GalNAc
# Outline: as §1
# [12] = target: GlcNAc(b1-6)Gal(b1-4)GlcNAc
# Outline: as §1
# GlcNAc(b1-6)GalNAc = target: GlcNAc(b1-6)GalNAc
# Outline: as §1
# GlcNAc3Prop(b1-4)GlcNAc = target: GlcNAc3Prop(b1-4)GlcNAc
# Outline: as §1
# [13] = target: GlcNAc6S(b1-3)Gal(b1-4)GlcNAc
# Outline: as §1
# Kdn(a2-3)Gal(b1-3)GalNAc = target: Kdn(a2-3)Gal(b1-3)GalNAc
# Outline: as §1
# Kdn(a2-3)Gal(b1-3)GlcNAc = target: Kdn(a2-3)Gal(b1-3)GlcNAc
# Outline: as §1
# Kdn(a2-3)Gal(b1-4)Glc = target: Kdn(a2-3)Gal(b1-4)Glc
# Outline: as §1
# Kdn(a2-3)Gal(b1-4)GlcNAc = target: Kdn(a2-3)Gal(b1-4)GlcNAc
# Outline: as §1
# [14] = target: Kdn(a2-3)Gal(b1-4)[Fuc(a1-3)]GlcNAc
# Outline: as §1
# Kdn(a2-6)Gal(b1-4)GlcNAc = target: Kdn(a2-6)Gal(b1-4)GlcNAc
# Outline: as §1
# [15] = target: Man(a1-2)Man(a1-2)Man(a1-3)Man
# Outline: as §1
# [16] = target: Man(a1-2)Man(a1-2)Man(a1-6)[Man(a1-3)]Man
# Outline: as §1
# Man(a1-2)Man(a1-3)Man = target: Man(a1-2)Man(a1-3)Man
# Outline: as §1
# [17] = target: Man(a1-2)Man(a1-3)[Man(a1-2)Man(a1-6)]Man
# Outline: as §1
# [18] = target: Man(a1-2)Man(a1-3)[Man(a1-2)Man(a1-6)]Man(a1-6)[Man(a1-2)Man(a1-2)Man(a1-3)]Man
# Outline: as §1
# [19] = target: Man(a1-2)Man(a1-3)[Man(a1-2)Man(a1-6)]Man(a1-6)[Man(a1-2)Man(a1-2)Man(a1-3)]Man(b1-4)GlcNAc(b1-4)GlcNAc
# Outline: as §1
# [20] = target: Man(a1-2)Man(a1-3)[Man(a1-6)]Man(a1-6)[Man(a1-2)Man(a1-3)]Man(b1-4)GlcNAc(b1-4)GlcNAc
# Outline: as §1
# [21] = target: Man(a1-2)Man(a1-6)[Man(a1-3)]Man(a1-6)[Man(a1-2)Man(a1-2)Man(a1-3)]Man
# Outline: as §1
# [22] = target: Man(a1-2)Man(a1-6)[Man(a1-3)]Man(a1-6)[Man(a1-2)Man(a1-2)Man(a1-3)]Man(b1-4)GlcNAc(b1-4)GlcNAc
# Outline: as §1
# Man(a1-3)[Man(a1-6)]Man = target: Man(a1-3)[Man(a1-6)]Man
# Outline: as §1
# [23] = target: Man(a1-3)[Man(a1-6)]Man(a1-6)[Man(a1-2)Man(a1-3)]Man(b1-4)GlcNAc(b1-4)GlcNAc
# Outline: as §1
binder,measurement,setting,value
CCL1 (Coprinopsis cinerea) (protein) MDTQAKPPAGRYVIYNRVLSPNGEKLALTYPGYQREALTLTPLHHSANQIWILNNWDATTSSLTPETARNTQVGWGSGNVPIVLPPGNYVWTLASSAGGYIIQDGGKTVYWNAGEAVANTKVSIGGDNGLQARWIFERV,glycan array binding signal (z-score),[1],-0.169
same,glycan array binding signal (z-score),GlcNAc(b1-3)Gal(b1-4)Glc,-0.138
same,glycan array binding signal (z-score),[2],-0.144
same,glycan array binding signal (z-score),[3],-0.15
same,glycan array binding signal (z-score),GlcNAc(b1-3)GalNAc,-0.169
same,glycan array binding signal (z-score),GlcNAc(b1-3)Man,-0.145
same,glycan array binding signal (z-score),[4],-0.058
same,glycan array binding signal (z-score),[5],-0.162
same,glycan array binding signal (z-score),[6],-0.141
same,glycan array binding signal (z-score),[7],-0.136
same,glycan array binding signal (z-score),GlcNAc(b1-4)GlcNAc,-0.149
same,glycan array binding signal (z-score),[8],-0.15
same,glycan array binding signal (z-score),[9],-0.154
same,glycan array binding signal (z-score),[10],-0.149
same,glycan array binding signal (z-score),[11],-0.132
same,glycan array binding signal (z-score),[12],-0.171
same,glycan array binding signal (z-score),GlcNAc(b1-6)GalNAc,-0.154
same,glycan array binding signal (z-score),GlcNAc3Prop(b1-4)GlcNAc,-0.139
same,glycan array binding signal (z-score),[13],-0.185
same,glycan array binding signal (z-score),Kdn(a2-3)Gal(b1-3)GalNAc,-0.079
same,glycan array binding signal (z-score),Kdn(a2-3)Gal(b1-3)GlcNAc,-0.141
same,glycan array binding signal (z-score),Kdn(a2-3)Gal(b1-4)Glc,-0.155
same,glycan array binding signal (z-score),Kdn(a2-3)Gal(b1-4)GlcNAc,-0.123
same,glycan array binding signal (z-score),[14],0.329
same,glycan array binding signal (z-score),Kdn(a2-6)Gal(b1-4)GlcNAc,-0.118
same,glycan array binding signal (z-score),[15],-0.152
same,glycan array binding signal (z-score),[16],-0.133
same,glycan array binding signal (z-score),Man(a1-2)Man(a1-3)Man,-0.164
same,glycan array binding signal (z-score),[17],-0.124
same,glycan array binding signal (z-score),[18],-0.146
same,glycan array binding signal (z-score),[19],-0.139
same,glycan array binding signal (z-score),[20],-0.122
same,glycan array binding signal (z-score),[21],-0.122
same,glycan array binding signal (z-score),[22],-0.138
same,glycan array binding signal (z-score),Man(a1-3)[Man(a1-6)]Man,-0.154
same,glycan array binding signal (z-score),[23],-0.134
